Laboratory results from the CheMixHub ionic liquid set.
The source gives many values for each of these; only a part stands here.

Assay: xn = mol fraction of the nth substance listed
Details: 298.15 K, 101 kPa

CCCCCCCCCCCCOS(=O)(=O)[O-].[Na+] + CCCO + O
Details	electrical conductivity [S/m]
x2 = 0.01553, x1 = 0.0003308	0.07978
x2 = 0.01553, x1 = 0.0003578	0.08478
x2 = 0.01553, x1 = 0.000383	0.08944
x2 = 0.01553, x1 = 0.0004069	0.09399
x2 = 0.02372, x1 = 0.0003901	0.0949
x2 = 0.02373, x1 = 1.75e-05	0.005353
x2 = 0.02373, x1 = 1.978e-05	0.006091
x2 = 0.02373, x1 = 2.168e-05	0.00667
x2 = 0.02373, x1 = 2.567e-05	0.00782
x2 = 0.02373, x1 = 3.005e-05	0.009043
x2 = 0.02373, x1 = 3.442e-05	0.01031
x2 = 0.02373, x1 = 3.804e-05	0.0114
x2 = 0.02373, x1 = 4.241e-05	0.01271
x2 = 0.02373, x1 = 4.964e-05	0.01488
x2 = 0.02373, x1 = 5.344e-05	0.01601
x2 = 0.02373, x1 = 6.903e-05	0.02092
x2 = 0.02373, x1 = 7.284e-05	0.02206
x2 = 0.02373, x1 = 7.721e-05	0.02332
x2 = 0.02373, x1 = 8.349e-05	0.02506
x2 = 0.02373, x1 = 8.748e-05	0.02621
x2 = 0.02373, x1 = 9.185e-05	0.02741
x2 = 0.02373, x1 = 9.585e-05	0.02852
x2 = 0.02373, x1 = 0.0001008	0.02992
x2 = 0.02373, x1 = 0.000104	0.0308
x2 = 0.02373, x1 = 0.0001105	0.03249
x2 = 0.02373, x1 = 0.0001169	0.03429
x2 = 0.02373, x1 = 0.0001221	0.03562
x2 = 0.02373, x1 = 0.0001295	0.03751
x2 = 0.02373, x1 = 0.0001392	0.03991
x2 = 0.02373, x1 = 0.0001554	0.04384
x2 = 0.02373, x1 = 0.0001706	0.0474
x2 = 0.02373, x1 = 0.0001919	0.05233
x2 = 0.02373, x1 = 0.0002168	0.05791
x2 = 0.02373, x1 = 0.0002537	0.06598
x2 = 0.02373, x1 = 0.0002848	0.07256
x2 = 0.03223, x1 = 0.0002102	0.05126
x2 = 0.03223, x1 = 0.0002472	0.05904
x2 = 0.03223, x1 = 0.0002927	0.06827
x2 = 0.03223, x1 = 0.0003477	0.07925
x2 = 0.03223, x1 = 0.0004112	0.0917
x2 = 0.03223, x1 = 0.0004828	0.1053
x2 = 0.03224, x1 = 3.68e-06	0.001146
x2 = 0.03224, x1 = 6.2e-06	0.001816
x2 = 0.03224, x1 = 8.91e-06	0.002513
x2 = 0.03224, x1 = 1.337e-05	0.00361
x2 = 0.03224, x1 = 1.821e-05	0.004833
x2 = 0.03224, x1 = 2.558e-05	0.006687
x2 = 0.03224, x1 = 3.1e-05	0.008058
x2 = 0.03224, x1 = 3.507e-05	0.009172
x2 = 0.03224, x1 = 3.953e-05	0.01037
x2 = 0.03224, x1 = 4.398e-05	0.01158
x2 = 0.03224, x1 = 4.902e-05	0.01284
x2 = 0.03224, x1 = 5.348e-05	0.01406
x2 = 0.03224, x1 = 5.793e-05	0.01532
x2 = 0.03224, x1 = 6.22e-05	0.01642
x2 = 0.03224, x1 = 6.646e-05	0.01789
x2 = 0.03224, x1 = 7.13e-05	0.01912
x2 = 0.03224, x1 = 7.556e-05	0.02014
x2 = 0.03224, x1 = 8.079e-05	0.02152
x2 = 0.03224, x1 = 8.912e-05	0.02363
x2 = 0.03224, x1 = 9.997e-05	0.02631
x2 = 0.03224, x1 = 0.0001224	0.03172
x2 = 0.03224, x1 = 0.0001377	0.03523
x2 = 0.03224, x1 = 0.0001779	0.04421
